Source: the RNAGym collection of RNA variant scans (doi:10.7554/elife.90254)
Read counts are not given, so values of variants with three or more changes are uncertain.

B1: LINE1-mini (parent)
chain: GGCAGAGCUCAACACAGCGUGGCAAAGUGGCUGUGGCUAGACUGCC

Variants of: B1
Experiment: self-cleavage, relative activity (ratio to wild type); higher = more cleavage; in vitro, sequencing; the parent is a self-cleaving ribozyme

Row | Variant | self-cleavage
1 | A12U G33U C37A U43A | 0.39
2 | C13A A39G G40A C45U | 0.09
3 | C13A U20C G29U | 0.06
4 | C13A U32G G36U | 0.04
5 | C13A G19C G22A C23A A24U G27U C31G | 0.01
6 | C13A G21U U28C | 0.05
7 | C13A G21U U28A | 0.09
8 | C13A C23U C31A U38A | 0.04
9 | C13A G19A C37G | 0.03
10 | C13A C15G G30C U38G | 0.01
11 | A12U G21A A25U G36A | 0.02
12 | C13A A26G G30C U32G | 0.02
13 | C13A C18A U28C | 0.06
14 | C13A G21A C31A | 0.03
15 | C13A C18G G33A U34C | 0.04
16 | A12U U20A G27A G30U C31A C37U | 0.01
17 | C13A G17A C37U | 0.1
18 | C13A C31U C37A | 0.04
19 | A12U G17U C45U | 0.05
20 | A12U U20A C46U | 0.12
21 | C13A A14U G27C | 0.03
22 | C13A G19C U34C | 0.06
23 | A12U U20A G22C U32C C37U C45U | 0
24 | C13A A16U G22U G40A | 0.08

Row | Variant | self-cleavage
25 | C13A C23U C46A | 0.05
26 | A12U G17U C23G G27U | 0.13
27 | A12U G19A G27U | 0.1
28 | A12U U20G U28C G33A | 0.02
29 | C13A G21U U38C G44C C45U C46U | 0.25
30 | C13A G33C G40U | 0.02
31 | A12U G40A C42G | 0.04
32 | C13A C23A A26G U28C C31A C45G C46A | 0.03
33 | C13A A24G G27C U28G | 0.13
34 | A12U G30U G35U | 0.09
35 | C13A A39U C45A | 0.09
36 | A12U U20C G22C G27C U28G U38C C46U | 0
37 | C13A C23U G36U | 0.15
38 | C13A A25C C31G | 0.04
39 | C13A A24U G27U G36U C46A | 0.05
40 | C13A A25G A41G | 0.03
41 | A12U G17C G19C G33U | 0.03
42 | A12U G22U G36C | 0.18
43 | A12U G17U A25C G30C | 0.19
44 | C13A G33U C46A | 0.01
45 | C13A C15U C23G | 0.04
46 | C13A G17U U28A C31G A41U | 0.05
47 | A12U U32A G36U C46A | 0
48 | A12U G22C G40A | 0.07

Row | Variant | self-cleavage
49 | A12U C31A G35U | 0.01
50 | A12U G17U C37U C45U | 0.02
51 | C13A A24U G36A A41G | 0.01
52 | C13A C15A G21C C42A | 0.04
53 | C13A G19C C23G | 0.03
54 | A12U U28G U32G A41C | 0.02
55 | A12U G29U G30C C45G | 0.02
56 | C13A U38G A39G | 0.03
57 | A12U G22C A25G G30A C31U | 0.02
58 | C13A G27C U38G C42A | 0.01
59 | C13A A14C G21C G36U G40U | 0.22
60 | C13A G22A G27U G30A | 0.16
61 | C13A C18G A39C | 0.02
62 | C13A G22A G27U A39C U43C | 0.03
63 | C13A G17A G30U | 0.04
64 | A12U G30A U43A | 0.03
65 | C13A C15G U28G | 0.11
66 | C13A C31G U43A | 0.19
67 | C13A U20C G22U A39C | 0.02
68 | C13A A14U U34C | 0.06
69 | C13A A16C C31U G35A | 0.06
70 | C13A C18G U34A C45G | 0.01
71 | C13A G19U U20C G40C C45G | 0.05
72 | C13A G21U A26U | 0.22

Row | Variant | self-cleavage
73 | A12U U32A G36A | 0.14
74 | C13A C23G G40A | 0.04
75 | C13A A26C G27U A39G | 0.1
76 | C13A C18A G29C | 0.45
77 | C13A A16C G29U | 0.4
78 | C13A C23G G36C | 0.02
79 | A12U G17U A26U G36U | 0.05
80 | C13A C18A U28A G29C | 0.17
81 | C13A G21U G33U | 0.05
82 | C13A G21U G44U | 0.07
83 | C13A G33U U38A G40U | 0.04
84 | A12U G17A C42A | 0.01
85 | A12U G27U G30C U43C | 0.02
86 | C13A G19U G35U | 0.33
87 | C13A U20G G33C U38A G40U | 0.03
88 | C13A G17U C18U C23U G27A | 0
89 | C13A U38C G44A | 0.01
90 | A12U U34G G35C G36A | 0.09
91 | C13A U20G G27U G33U C37U | 0.07
92 | C13A U20C G27C G35C G40A | 0.05
93 | C13A G30C G36C C37A | 0.16
94 | C13A A14U A24U | 0.06
95 | A12U G21U U34G | 0.03
96 | C13A A25U G29A | 0.15

Row | Variant | self-cleavage
97 | C13A U38A G44A | 0.23
98 | A12U C23G U38G A39C G44C | 0.01
99 | C13A A16C A26C | 0.05
100 | C13A G21U G27C G33U | 0.03
101 | C13A A24C C42A | 0.04
102 | C13A G22C A24U C46U | 0.03
103 | C13A C23U C45G | 0.03
104 | C13A U20A U32G | 0.09
105 | C13A U20A U32A | 0.04
106 | A12U G22U C37U A41U | 0
107 | C13A U28C G36C | 0.07
108 | C13A C18G A39C G44A | 0.08
109 | C13A A25C G27A G30C | 0.14
110 | C13A A24C A25C G30U U32A | 0.07
111 | A12U G17A G22A G33U | 0.01
112 | C13A C15G G17U U34A | 0.39
113 | A12U U20G C23G | 0.06
114 | A12U G17U C23G | 0.07
115 | C13A G17C A24U G27A | 0.12
116 | C13A C15G G21U C31U C46U | 0.02
117 | A12U G27U G33U C37A C46U | 0.01
118 | C13A G21C C42G | 0.09
119 | C13A G17A C46A | 0.04
120 | A12U G17U C31A | 0.08

Row | Variant | self-cleavage
121 | C13A U20C C37A U43A | 0.06
122 | C13A G33A C45U | 0.1
123 | C13A U20A G30C A39G | 0.2
124 | A12U C31U U32A A41G U43A C46G | 0.02
125 | A12U G19A G22U | 0.27
126 | A12U U32G G36U | 0.01
127 | C13A C18A U28G C46G | 0.04
128 | C13A A16C A26G G33C | 0.03
129 | C13A C37A C45U | 0.08
130 | A12U C23G U43G | 0.01
131 | A12U G22C G40U U43A | 0.04
132 | C13A U34C C45A | 0.07
133 | C13A A14U C37U | 0.07
134 | A12U G17U A24C A39C U43C | 0.02
135 | C13A G33A G40U | 0.02
136 | A12U G30U U32G | 0.05
137 | C13A A14C U32C | 0.08
138 | C13A U20G A24U G30C | 0.09
139 | C13A G33C C37G | 0.03
140 | C13A C18A G27C G36A | 0.05
141 | A12U G29C U32A G36U C45A C46G | 0.09
142 | C13A C15U U20C G21C U32A | 0.02
143 | C13A A24C U28G G29U G36U G40C | 0.36
144 | A12U U20G A24G C46G | 0.13

Row | Variant | self-cleavage
145 | A12U C23U U28G G33A | 0.1
146 | C13A A16U G19A C31U | 0
147 | A12U G22C G33U | 0.02
148 | C13A C15U G29U | 0.18
149 | A12U G19U G36A G44U | 0.01
150 | A12U C23G G40C | 0.04
151 | C13A C37G U43A | 0.08
152 | C13A A16G G21A C23A C31A | 0.04
153 | C13A A26C U34G C42U | 0.06
154 | C13A U20C G21C | 0.07
155 | C13A G17A U32C G44C | 0.02
156 | C13A G30A A41C U43A | 0
157 | C13A C15U A16C G17C | 0.03
158 | C13A G21U C42A C46G | 0.07
159 | C13A A14G G17U C37G U38A C46U | 0.01
160 | A12U U34G A41U | 0.04
161 | C13A A25C G36A | 0.02
162 | C13A C42U C46U | 0.06
163 | C13A G19C A41G | 0.01
164 | C13A A24G G27C | 0.06
165 | C13A C23A A25U A26C | 0.09
166 | C13A C15A G30U U32C G44A | 0.07
167 | C13A A26U G44A C46U | 0.06
